At least one compound was matched to its structure with a doubt left.
Columns and labels:
OX1R [1] = biological target: T1, OX1R (Homo sapiens, UniProt O43613); settings: literature; cited from earlier work
T1 sequence (O43613 1-425): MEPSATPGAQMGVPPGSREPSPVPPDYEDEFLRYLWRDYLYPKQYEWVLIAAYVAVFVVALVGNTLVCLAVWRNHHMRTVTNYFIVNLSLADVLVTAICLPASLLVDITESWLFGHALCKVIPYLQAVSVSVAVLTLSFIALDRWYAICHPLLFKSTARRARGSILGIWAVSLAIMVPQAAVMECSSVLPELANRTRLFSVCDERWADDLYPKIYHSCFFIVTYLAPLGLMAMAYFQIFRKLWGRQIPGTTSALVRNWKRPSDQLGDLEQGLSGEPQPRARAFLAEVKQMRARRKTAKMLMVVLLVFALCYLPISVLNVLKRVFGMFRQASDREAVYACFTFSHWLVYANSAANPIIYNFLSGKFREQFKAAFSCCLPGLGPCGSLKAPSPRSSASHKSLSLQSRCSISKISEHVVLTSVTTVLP

OX2R [2] = biological target: T2, OX2R (Homo sapiens, UniProt O43614); settings: literature; cited from earlier work
T2 sequence (O43614 1-444): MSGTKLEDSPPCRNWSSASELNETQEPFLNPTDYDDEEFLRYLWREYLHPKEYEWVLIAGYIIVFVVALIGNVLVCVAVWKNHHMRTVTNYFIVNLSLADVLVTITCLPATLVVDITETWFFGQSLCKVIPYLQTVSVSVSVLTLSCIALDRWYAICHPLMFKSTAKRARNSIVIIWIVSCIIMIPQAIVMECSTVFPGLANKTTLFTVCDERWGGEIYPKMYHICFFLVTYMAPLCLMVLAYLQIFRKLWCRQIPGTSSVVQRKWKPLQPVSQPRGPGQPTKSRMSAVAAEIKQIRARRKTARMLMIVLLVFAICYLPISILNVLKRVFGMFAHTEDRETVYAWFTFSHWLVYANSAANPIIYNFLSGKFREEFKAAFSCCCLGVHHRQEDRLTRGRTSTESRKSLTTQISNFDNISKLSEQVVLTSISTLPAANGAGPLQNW

OX2R [3] = biological target: T2, OX2R; assay: OX2R calcium mobilization assay; format: cell-based; parameters: host or cells: CHO RD-HGA16 cells
Description: (§1) Activity of the target compounds at the human OX1 and OX2 receptors was determined utilizing CHO RD-HGA16 cells (Molecular Devices) engineered to stably express either the human OX1 or the human OX2 receptor. Cells were maintained in Ham's F12 supplemented with 10% fetal bovine serum, 100 units of penicillin and streptomycin, and 100 μg/mL normocin™. To conduct the assay, cells were plated at 25,000 cells/well and incubated overnight at 37° C., 5% CO2. The next day, cells were washed with assay buffer and loaded with Calcium 5 dye (Molecular Devices). After 45 minutes, cells were pretreated with a 9% DMSO solution for 15 minutes.
(§2) All of the synthesized compounds were characterized for their agonist potencies in the calcium mobilization assays using CHO cells overexpressing either the OX1R or OX2R. Reference is made to German, N. A.; Decker, A. M.; Gilmour, B. P.; Thomas, B. F.; Zhang, Y., Truncated Orexin Peptides: Structure-Activity Relationship Studies.

wild-type mice = settings: 40 mg/kg i.p., salt form; cited from earlier work
[4] = tested on: orexin KO and orexin neuron-ablated mice; settings: cited from earlier work
OX1R [5] = biological target: T1, OX1R; assay: OX1R calcium mobilization assay; format: cell-based; parameters: host or cells: CHO RD-HGA16 cells; settings: for agonist potency at OX1R, in words: calcium mobilization; for OX1/OX2: ratio of OX1 to OX2 potency value
Description: as §1, §2

50+ targets = assay: Target selectivity panel (10 μM); format: binding
12 mo mice = assay: Cognition in TWAA and CORT tasks in 12 mo mice; format: in vivo; settings: 40 mg/kg, i.p., vs saline

Row | Compound | OX1/OX2 (OX1R [5]) | also measured
1 | COc1ccc(-c2cccc(C(=O)N(C)C)c2)cc1S(=O)(=O)Nc1cccc(NCCNC(=O)c2ccccc2N(C)C)c1 [Compound 1, reference compound] | 4.99 | activity at OX1R, in words (OX1R [1]): little to no activity; activity at OX2R, in words (OX2R [2]): good potencies; agonist potency at OX2R, in words (OX2R [3]): mainly activates OX2R; wakefulness (wild-type mice): promoted wakefulness; cataplexy-like episodes [4]: suppressed cataplexy-like episodes; agonist potency at OX1R, in words (OX1R [5]): minimal agonist activity
2 | COc1ccc(-c2cccc(C(=O)N(C)C)c2)cc1S(=O)(=O)Nc1cccc(NCC(C)NC(=O)c2cccc(C)c2)c1 (stereo not shown) [Compound 16] | 1.77 | –
3 | COc1ccc(-c2cccc(C(=O)N(C)Cc3ccncc3)c2)cc1S(=O)(=O)Nc1cncc(O[C@H]2CCN(C(=O)c3cccc(C)c3)C2)c1 [Compound 56] | 17.7 | –
4 | COc1ccc(-c2cccc(C(=O)N(C)Cc3ccncc3)c2)cc1S(=O)(=O)Nc1cncc(OC2CCCN(C(=O)c3cccc(C)c3)C2)c1 (stereo not shown) [Compound 57] | 0.91 | –
5 | COc1ccc(-c2cccc(C(=O)N(C)Cc3ccncc3)n2)cc1S(=O)(=O)Nc1cccc(NCCNC(=O)c2cccc(C)c2)c1 [Compound 59] | 1.57 | –
6 | COc1ccc(-c2cccc(C(=O)N(C)Cc3ccncc3)c2)cc1S(=O)(=O)Nc1cncc(NCCNC(=O)c2cccc(C)c2)c1 [Compound 61] | 0.76 | agonist potency at OX2R, in words (OX2R [3]): excellent agonist potency; Target Selectivity (10 μM): inhibition vs. 50+ targets (50+ targets): <50%; cognition in TWAA and CORT tasks (12 mo mice): improved cognition; agonist potency at OX1R, in words (OX1R [5]): excellent agonist potency
7 | CCCCNc1cncc(NS(=O)(=O)c2cc(-c3cccc(C(=O)N(C)Cc4ccncc4)c3)ccc2OC)c1 [Compound 71] | 0.51 | –
8 | CCCCCNc1cncc(NS(=O)(=O)c2cc(-c3cccc(C(=O)N(C)Cc4ccncc4)c3)ccc2OC)c1 [Compound 72] | 0.37 | –
9 | CCCCCCNc1cncc(NS(=O)(=O)c2cc(-c3cccc(C(=O)N(C)Cc4ccncc4)c3)ccc2OC)c1 [Compound 73] | 0.25 | –
10 | CCCCCCCNc1cncc(NS(=O)(=O)c2cc(-c3cccc(C(=O)N(C)Cc4ccncc4)c3)ccc2OC)c1 [Compound 74] | 0.23 | –
11 | CCCCCCCCNc1cncc(NS(=O)(=O)c2cc(-c3cccc(C(=O)N(C)Cc4ccncc4)c3)ccc2OC)c1 [Compound 75] | 0.47 | –
12 | CCCCCCCCCNc1cncc(NS(=O)(=O)c2cc(-c3cccc(C(=O)N(C)Cc4ccncc4)c3)ccc2OC)c1 [Compound 76] | 0.40 | –
13 | CCCCCCCCCCNc1cncc(NS(=O)(=O)c2cc(-c3cccc(C(=O)N(C)Cc4ccncc4)c3)ccc2OC)c1 [Compound 77] | 0.79 | –
14 | COc1ccc(-c2cccc(C(=O)N(C)Cc3ccncc3)c2)cc1S(=O)(=O)Nc1cncc(NCC2CCCCC2)c1 [Compound 78] | 0.24 | –
15 | COc1ccc(-c2cccc(C(=O)N(C)Cc3ccncc3)c2)cc1S(=O)(=O)Nc1cncc(NCCCC2CCCCC2)c1 [Compound 79] | 0.68 | –

Source: patent publication US20240174605A1, “ARYLSULFONAMIDES AS OREXIN RECEPTOR AGONISTS” (RESEARCH TRIANGLE INSTITUTE, priority 2021, published 2024)
